± gives the standard deviation of the averaged measurements. The full ranking holds about 33,000 sequences; the median of “E-score (dimensionless, -0.5 to 0.5)” is about -0.049, and the highest 2% start at about 0.37. This is one part of the list.
tested on: T1, PmTbr T-box DNA-binding domain (GST fusion); test: PBM E-score of 8-mer (E-score (dimensionless, -0.5 to 0.5)); Tbr is Tbrain of the sea star Patiria miniata (Pm) or the sea urchin Strongylocentrotus purpuratus (Sp); higher = stronger binding preference; most listed sequences are background and not binding sites; conditions: the construct has about 5 more residues each side
T1 sequence: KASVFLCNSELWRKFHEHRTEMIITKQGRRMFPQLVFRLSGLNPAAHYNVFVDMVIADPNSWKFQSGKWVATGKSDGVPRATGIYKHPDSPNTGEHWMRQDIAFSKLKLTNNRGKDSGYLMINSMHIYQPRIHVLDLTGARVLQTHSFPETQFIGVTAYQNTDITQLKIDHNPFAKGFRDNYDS
Outline: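 Expression of GST-fused Tbr T-box DNA-binding domains, each holding the full T-box plus roughly five flanking residues, was carried out in BL21 E. coli at 20 °C, with purification by glutathione affinity chromatography. Universal Agilent arrays made double-stranded by primer extension were incubated with the protein at 200 nM in PBS (pH 7.5), then scanned and quantified. All ungapped 8-mers were scored from probe intensities, and each received an enrichment E-score from the Universal PBM Analysis Suite, averaged over duplicate arrays.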

Sequence	PBM E-score of 8-mer
ATACTCTA	-0.16 ± 0.032
AAAAACTA	-0.143 ± 0.06
GAGACACA	0.053 ± 0.046
ACTTCAAC	0.159 ± 0.083
AGCGACAG	0.202 ± 0.077
AGCATGGA	-0.118 ± 0.091
CAAAATAG	-0.171 ± 0.042
AAAAGTCT	-0.192 ± 0.081
CATCAAGA	-0.245 ± 0.022
AACGTAAC	-0.219 ± 0.064
TGAATACA	-0.2 ± 0.035
ACTCCCTG	-0.0934 ± 0.096
GGGGGCAA	-0.0812 ± 0.086
CAGACCTC	-0.267 ± 0.013
AAGTCGTA	-0.131 ± 0.11
ATATATCG	-0.0123 ± 0.037
CAGGGCAA	-0.183 ± 0.024
AGTCAACA	0.269 ± 0.022
GTACAATA	-0.305 ± 0.031
TACGGCGA	-0.141 ± 0.045
AGAGCATC	-0.226 ± 0.1
GGCGGCGA	0.0111 ± 0.049
CCTATAAC	-0.0211 ± 0.05
CCGAGTAC	-0.109 ± 0.036
ACTTGGCT	-0.171 ± 0.04

Sequence	PBM E-score of 8-mer
AGCTATTC	-0.132 ± 0.065
CACCCGAG	0.0779 ± 0.017
GGCGCTCA	-0.00054 ± 0.07
CTAACAGA	0.183 ± 0.008
GATCTCCC	-0.151 ± 0.094
ATGCAGTC	-0.0466 ± 0.011
ACAACAAT	0.109 ± 0.024
AATAAAGG	-0.228 ± 0.0042
TGAGTTAA	-0.141 ± 0.077
AGCTCCTG	-0.0536 ± 0.084
AGAAGCCG	-0.187 ± 0.012
CCCAAGAG	-0.0986 ± 0.002
AGGGCACC	-0.13 ± 0.0072
AGCGACTC	0.0803 ± 0.0075
GTGGTGTA	0.1994 ± 0.0016
GCTAGTCA	-0.0356 ± 0.004
GGTGAAAA	0.2007 ± 0.0014
CGCAGAGA	-0.2281 ± 0.001
AATAAATA	-0.162 ± 0.023
CATGGATC	-0.135 ± 0.015
AGTATGCC	-0.161 ± 0.15
CTAGCTCA	-0.0717 ± 0.031
AGGAGCAA	-0.0899 ± 0.02
CTGGTCGA	-0.0334 ± 0.002
GATAGTTA	0.09234 ± 0.00081

Sequence	PBM E-score of 8-mer
AATTCGAA	-0.254 ± 0.07
ACGGTTTC	0.00425 ± 0.025
ACGTCTCA	-0.0332 ± 0.033
GCACATAC	0.21 ± 0.02
CACGTGAG	0.188 ± 0.011
CCGCAAAG	-0.232 ± 0.0091
GCCCGATA	-0.107 ± 0.056
CGTAGTAA	-0.0775 ± 0.049
AATGCGAT	0.024 ± 0.0098
ACAGACGA	-0.24 ± 0.0034
AATCCAGG	-0.0711 ± 0.054
TCCGAGCA	-0.234 ± 0.0011
AAGATATG	-0.00924 ± 0.0019
GAAGGCAA	-0.161 ± 0.079
ACCTAGCA	0.271 ± 0.018
CCAAAGGC	0.0614 ± 0.038
ACGTCAGC	-0.126 ± 0.061
AGCCAATC	-0.0275 ± 0.0016
GCTATGAC	0.0747 ± 0.036
CCGTCACG	0.23 ± 0.065
GAGTGGAA	0.0808 ± 0.014
AGGGCCAA	-0.31 ± 0.063
TGATTGCA	0.0943 ± 0.049
ACCCGCAC	0.202 ± 0.062
CAGGGATC	-0.0878 ± 0.057

Sequence	PBM E-score of 8-mer
GACAAATA	0.142 ± 0.029
AGGACTCG	-0.0254 ± 0.07
CAGACGGG	0.0786 ± 0.0097
AGGATTGC	0.0509 ± 0.034
AAATCCCG	-0.135 ± 0.038
CGCCGCTC	-0.231 ± 0.024
ATGATATC	0.0392 ± 0.088
CCCCACGC	-0.0993 ± 0.028
ATGAGCCA	-0.233 ± 0.022
CCCGCCTA	-0.00776 ± 0.11
GGATTAAC	0.0329 ± 0.085
CGTCTAGC	-0.0353 ± 0.096
AATAAGAC	-0.0961 ± 0.025
AAGCCCGA	-0.0694 ± 0.029
ATCGACCA	0.148 ± 0.015
CGAGAATC	0.203 ± 0.038
ACACAATC	0.242 ± 0.037
TGTCAGAA	0.17 ± 0.033
ACGTTGAA	0.0133 ± 0.026
ATGCAACC	0.0283 ± 0.0036
GCTACAAA	-0.0924 ± 0.012
CACTATTC	0.074 ± 0.0016
AAGGATGA	-0.184 ± 0.088
CATGCACG	0.122 ± 0.0017
AAGTTCGG	-0.00611 ± 0.0034

Sequence	PBM E-score of 8-mer
CTGGACCA	-0.115 ± 0.0055
AAGAGATG	-0.132 ± 0.085
GGTGCCAA	0.454 ± 0.006
ACACTTGG	0.395 ± 0.0073
ATCGGCTC	-0.223 ± 0.062
ACTTCGAG	0.159 ± 0.0079
AGAATTCC	-0.115 ± 0.053
AGACGTTA	-0.144 ± 0.038
GACCTTGA	-0.166 ± 0.025
AGGTAGGG	-0.0541 ± 0.14
AAACATCA	-0.107 ± 0.043
GGGTCTAC	-0.2753 ± 0.0013
GGTCAGGA	-0.113 ± 0.042
CTGTTAGA	0.118 ± 0.0087
GGATAGCA	0.102 ± 0.025
CTTCCTAC	-0.225 ± 0.029
CTAACTTA	-0.143 ± 0.0033
GAACCAGC	-0.0953 ± 0.0037
ATAGTGTG	0.393 ± 0.033
GCACCTGC	0.395 ± 0.018
CACGGATC	-0.107 ± 0.033
ACCTAAAT	0.0258 ± 0.021
ATCGCAGA	-0.00716 ± 0.061
ACTAAGCG	-0.112 ± 0.027
ACCCTAAC	-0.00485 ± 0.028

Sequence	PBM E-score of 8-mer
GTGAGTGA	0.181 ± 0.011
GACTACAC	0.0511 ± 0.078
AATGATAG	-0.0973 ± 0.0096
ATCGTTTG	-0.0168 ± 0.0081
GCCAAAGC	0.015 ± 0.0095
TACCGACA	0.0834 ± 0.041
AAATGGTC	-0.257 ± 0.006
AAAGCCAT	-0.176 ± 0.036
CGCATTCC	-0.0478 ± 0.021
ATCTCAGC	0.08553 ± 0.00043
AACATCAG	-0.183 ± 0.029
CACGGCAA	-0.0259 ± 0.0024
CACAGGGC	-0.00521 ± 0.056
CGTGCCCA	-0.173 ± 0.011
TACGGAAA	-0.139 ± 0.015
ACGACACT	0.298 ± 0.0045
AGCCCATC	-0.295 ± 0.052
ACAGTCGC	0.195 ± 0.0033
CCGACCAA	-0.0414 ± 0.0038
GGGCAGCA	0.0782 ± 0.015
AGGCTCGA	-0.135 ± 0.02
CCACTCTC	-0.167 ± 0.082
GTTAATAA	0.0969 ± 0.021
CTGTCGAC	0.197 ± 0.0091
GCAAGACA	0.0617 ± 0.013

Sequence	PBM E-score of 8-mer
TGGCCCAA	-0.215 ± 0.0058
CCACGGCG	-0.00334 ± 0.056
CCGGTGGA	-0.231 ± 0.023
ACGAGTGG	0.0903 ± 0.009
AGTGATTG	-0.00764 ± 0.076
ATTCTAGA	-0.0901 ± 0.038
ACGTCGTA	-0.0172 ± 0.031
AAGGTAGG	-0.104 ± 0.028
AACGGTCT	-0.201 ± 0.043
AAACACTG	0.0567 ± 0.13
CAGGTCAA	-0.115 ± 0.037
GGACGCCC	-0.228 ± 0.046
TGGTGAAA	-0.00301 ± 0.06
GAGGAAAA	-0.0833 ± 0.022
CGATCATA	-0.132 ± 0.03
CCAGGTCG	0.0426 ± 0.013
TAAAACCA	-0.0938 ± 0.019
ATCTGCGC	0.0547 ± 0.029
ACGCGCTA	0.327 ± 0.011
GCATGCAA	-0.0272 ± 0.00095
CAGGCAAG	-0.234 ± 0.059
CTTCAGTA	0.0389 ± 0.053

Reference: the supplement of paper PMC4166925
